The source of these data is publication PMC4350111.

By UniProt entry, the sequences of proteins in these tests, tags left out. Where a name states a change or a piece, a line headed by the entry shows the natural chain unless it says otherwise.
UniProt P03372: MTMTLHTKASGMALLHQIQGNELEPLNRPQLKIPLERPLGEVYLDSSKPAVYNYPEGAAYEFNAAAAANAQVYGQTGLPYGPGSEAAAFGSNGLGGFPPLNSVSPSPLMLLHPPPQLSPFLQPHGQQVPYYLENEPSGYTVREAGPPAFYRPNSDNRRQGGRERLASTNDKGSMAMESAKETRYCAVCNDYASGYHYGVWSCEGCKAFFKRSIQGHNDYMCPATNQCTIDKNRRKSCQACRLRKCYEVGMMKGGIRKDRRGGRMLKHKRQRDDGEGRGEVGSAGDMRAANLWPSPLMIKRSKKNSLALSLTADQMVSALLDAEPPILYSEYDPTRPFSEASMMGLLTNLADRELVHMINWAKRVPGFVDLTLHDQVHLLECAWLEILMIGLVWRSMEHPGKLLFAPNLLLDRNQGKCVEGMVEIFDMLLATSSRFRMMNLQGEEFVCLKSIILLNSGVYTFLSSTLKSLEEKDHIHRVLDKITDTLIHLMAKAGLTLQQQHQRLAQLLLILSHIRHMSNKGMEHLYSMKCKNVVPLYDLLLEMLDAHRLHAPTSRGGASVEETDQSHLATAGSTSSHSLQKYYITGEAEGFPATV
UniProt Q9UNE7: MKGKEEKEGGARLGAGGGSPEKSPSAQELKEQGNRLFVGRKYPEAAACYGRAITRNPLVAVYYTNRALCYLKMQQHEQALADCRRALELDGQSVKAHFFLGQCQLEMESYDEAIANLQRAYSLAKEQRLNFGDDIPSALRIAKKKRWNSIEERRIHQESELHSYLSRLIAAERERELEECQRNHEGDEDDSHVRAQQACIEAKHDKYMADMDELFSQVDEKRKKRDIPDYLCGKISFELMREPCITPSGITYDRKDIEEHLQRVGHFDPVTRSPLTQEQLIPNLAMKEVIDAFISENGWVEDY
UniProt Q99728: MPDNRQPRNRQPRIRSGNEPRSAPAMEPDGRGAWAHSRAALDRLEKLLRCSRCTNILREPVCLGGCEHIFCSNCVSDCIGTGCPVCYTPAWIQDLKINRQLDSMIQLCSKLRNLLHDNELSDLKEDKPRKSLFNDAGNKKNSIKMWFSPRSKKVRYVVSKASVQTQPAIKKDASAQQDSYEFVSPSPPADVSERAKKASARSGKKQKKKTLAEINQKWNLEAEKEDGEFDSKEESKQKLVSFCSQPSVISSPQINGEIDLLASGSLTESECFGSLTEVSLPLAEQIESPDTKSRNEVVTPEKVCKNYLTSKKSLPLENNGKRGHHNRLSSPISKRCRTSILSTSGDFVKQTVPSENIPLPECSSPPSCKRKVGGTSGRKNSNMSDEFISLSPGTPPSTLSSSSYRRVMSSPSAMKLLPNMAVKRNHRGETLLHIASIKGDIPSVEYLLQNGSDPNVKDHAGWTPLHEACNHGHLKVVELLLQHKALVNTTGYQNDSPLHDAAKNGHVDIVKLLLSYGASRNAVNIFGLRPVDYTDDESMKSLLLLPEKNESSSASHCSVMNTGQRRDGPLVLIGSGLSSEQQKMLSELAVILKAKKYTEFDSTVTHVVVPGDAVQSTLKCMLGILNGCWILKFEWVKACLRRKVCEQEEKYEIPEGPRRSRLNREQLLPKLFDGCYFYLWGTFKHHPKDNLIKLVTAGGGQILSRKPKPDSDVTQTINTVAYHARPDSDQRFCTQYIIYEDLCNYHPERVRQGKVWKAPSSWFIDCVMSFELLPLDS
UniProt Q00987: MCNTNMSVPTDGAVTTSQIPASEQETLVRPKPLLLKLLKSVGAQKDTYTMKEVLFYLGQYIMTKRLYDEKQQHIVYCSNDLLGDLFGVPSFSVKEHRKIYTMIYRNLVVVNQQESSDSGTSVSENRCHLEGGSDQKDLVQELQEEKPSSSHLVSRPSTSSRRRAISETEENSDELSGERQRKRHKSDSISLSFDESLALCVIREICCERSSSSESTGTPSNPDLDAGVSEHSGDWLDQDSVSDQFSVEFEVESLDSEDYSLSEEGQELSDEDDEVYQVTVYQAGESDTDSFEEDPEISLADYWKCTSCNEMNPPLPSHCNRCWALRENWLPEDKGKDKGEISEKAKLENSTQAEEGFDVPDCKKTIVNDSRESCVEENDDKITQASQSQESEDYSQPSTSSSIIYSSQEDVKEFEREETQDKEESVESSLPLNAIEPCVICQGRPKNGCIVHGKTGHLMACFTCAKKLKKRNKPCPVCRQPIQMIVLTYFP
UniProt Q01167: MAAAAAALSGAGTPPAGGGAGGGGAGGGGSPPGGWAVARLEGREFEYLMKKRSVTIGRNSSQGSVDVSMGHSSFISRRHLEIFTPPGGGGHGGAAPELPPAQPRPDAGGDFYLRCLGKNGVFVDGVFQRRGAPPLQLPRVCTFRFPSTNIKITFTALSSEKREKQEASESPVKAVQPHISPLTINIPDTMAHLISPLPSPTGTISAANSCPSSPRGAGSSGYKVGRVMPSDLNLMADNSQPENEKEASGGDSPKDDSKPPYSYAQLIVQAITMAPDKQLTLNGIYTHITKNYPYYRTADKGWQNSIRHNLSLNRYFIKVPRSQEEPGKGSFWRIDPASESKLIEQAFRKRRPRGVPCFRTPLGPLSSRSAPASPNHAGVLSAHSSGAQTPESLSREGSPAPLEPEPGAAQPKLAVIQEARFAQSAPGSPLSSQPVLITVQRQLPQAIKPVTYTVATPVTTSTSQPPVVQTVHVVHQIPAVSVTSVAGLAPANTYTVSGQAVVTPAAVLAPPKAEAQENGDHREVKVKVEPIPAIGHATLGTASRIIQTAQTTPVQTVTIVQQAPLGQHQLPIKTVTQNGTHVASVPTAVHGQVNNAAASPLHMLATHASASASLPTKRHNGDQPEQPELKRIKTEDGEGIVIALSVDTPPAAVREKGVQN

In test [1] the target is Flag-ERα (UniProt P03372). Nature of the test: co-IP; tagged proteins transiently expressed in HEK 293T; immunoprecipitation by one tag, Western blot by the other (in some panels vice versa); in Fig. 2g, 4h and 4i cells treated with 10 μM MG132 for 8 h; in Fig. 4h FOXK2 overexpressed, in Fig. 4i FOXK2 knocked down by siRNA.
The target in test [2] is C terminus of Hsc70-interacting protein (CHIP) (UniProt Q9UNE7). Described as above.
In test [3] the target is EGFP-ERα (UniProt P03372). Described as above.
The target in test [4] is HA-BARD1 (UniProt Q99728). Described as above.
Test [5] has as its target endogenous MDM2 (murine double minute 2) (human (endogenous in MCF-7)) (UniProt Q00987). Nature of the test: co-IP; endogenous proteins from MCF-7 (and T47D) lysates; immunoprecipitation with an antibody against one partner, Western blot for the other, or vice versa; anti-IgG as control; lysis in 50 mM Tris-HCl pH 8.0, 150 mM NaCl, 0.1% SDS, 1% NP-40, 0.5% sodium deoxycholate; 4°C overnight. A general note: A western blot detects proteins with antibodies after separation by electrophoresis.

Test [6] concerns the target endogenous BARD1 (BRCA1-associated RING domain protein 1) (human (endogenous in MCF-7)) (UniProt Q99728). The test is described as above.
Test [7] deals with endogenous ERα (estrogen receptor alpha) (human (endogenous in MCF-7 and T47D)) (UniProt P03372). The test is described as above.
The target in test [8] is Flag-ERα (UniProt P03372). Nature of the test: co-IP; re-immunoprecipitation: MCF-7 cells transfected with Flag-ERα and HA-BARD1; immunoprecipitation with anti-Flag, re-immunoprecipitation with anti-HA, Western blot with anti-FOXK2, anti-Flag or anti-HA.
For test [9], the target named is HA-BARD1 (UniProt Q99728). The description is as above.
Test [10] deals with pBIND-ERα fusion protein (UniProt P03372). In words: two-hybrid; CheckMate mammalian two-hybrid system (Promega) in HEK 293T with the pG5-luc reporter; luciferase measured 36 h after transfection.

No constants are given. Whether binding was seen depends on the method and setting. For some assays here: In cells and extracts the contact can be indirect. Some entries that bind do so weakly or less than the wild type.

Regarding EGFP-FOXK2 (from UniProt Q01167 1-660), the binding entry in test [1] was “binds”.

As for “FOXK2 (transfected, construct not named, Fig. 4b) (from UniProt Q01167 1-660)”, the binding entry in [2] is “no binding”.

With “Flag-tagged full-length FOXK2 (from UniProt Q01167 1-660)”, the binding result in test [3] and in test [4] was “binds” in each case.

Turning to “His-Flag-FOXK2 (from UniProt Q01167 1-660)”, in [4], the binding entry was “binds”.

As for “endogenous FOXK2 (Forkhead box K2) (from UniProt Q01167 1-660)”, the binding result is listed as “no binding” in test [5]; “binds” in test [6]; “binds” in test [7]; “binds” in test [8]; “binds” in [9].

Consider “pACT-FOXK2 fusion protein (from UniProt Q01167 1-660)”, for which the binding entry in test [10] was “binds”.
